# Results reported in the supplement of paper PMC11417369.
# ± gives the standard deviation of the averaged measurements. This is one part of the list.
# Tested on: PfAP2-G AP2 domain (GST-tagged)
# Assay: gcPBM binding intensity (ln(normalized median fluorescence intensity)); higher = stronger DNA binding
# Outline: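 Binding of GST-tagged P. falciparum DNA-binding domains, expressed in E. coli and used at about 25 μg on average, was carried out for 1 h in 1× PBS containing 1% milk, 0.2 mg/ml BSA, 0.5% salmon testes DNA and 0.03% Triton X-100. The target was an Agilent 4 × 180k array of primer-extended double-stranded 36-bp intergenic genomic probes plus negative controls, read with Alexa488 anti-GST antibody at 488 nm. Binding intensity is the highest Masliner-normalised natural-log median intensity across replicate spots of either probe orientation.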
row,Sequence,gcPBM binding intensity (ln)
1,AACCATTCAACTGATGCATGCATTTAACATATAAAT [TGCATGCA_site961],9.99 ± 0.14
2,TTTTTCTTTTTCTTTTTTTCTTTTTTTTTTTTTTTC [GTGCAC_negctrl_site727],9.77 ± 0.15
3,CAGACGCACGTATTTGCACACATTGCCACGTAATTA [CACACA_site3349],10.4 ± 0.2
4,AAACAAATATAATATTGTACATATATATATATATAT [XGTACX_site3105],10.9 ± 0.63
5,AAAAAAATTGGGAAAAGTACTTGCAGCTAGCTAAAA [XGTACX_site5178],11.1 ± 0.63
6,TTAAAAAAAATTTCAAGTACAAAGTAATATATATAT [XGTACX_site5718],10.9 ± 0.77
7,AATTATACATTATATTGTACATATGAATAATTAAAA [XGTACX_site6829],11 ± 0.68
8,TATATGTAATATATATGTACGTATAATATAATATTG [XGTACX_site8620],11.4 ± 0.92
9,CATATATATATATATTGTACACATTTTTTATAAAAA [XGTACX_site2526],11.4 ± 0.75
10,TATTTGCAATATAACACACACAAAAAAAGACTCGGA [CACACA_site6891],10.2 ± 0.15
11,AGAGAGAAAGCTATAACATGCAAAAATTTTTAGAAC [TGCATGCA_site420],9.785 ± 0.078
12,AGTGATAATTTAAAAAGTACAAATGAAATTTAGCTA [XGTACX_site3375],11.2 ± 0.65
13,TATATATAAAGCAGTACACACATTTATTTTAGATAC [CACACA_site3387],11.3 ± 0.69
14,ATACAAATAAAAAAAAAAATTATAAAATTATAAAAT [CACACA_negctrl_site914],9.43 ± 0.042
15,TTTCACATATATATGGTGCATATTTTATGTGTAAAT [GTGCAC_site9937],10 ± 0.18
16,GTGTGCAAAAATTGTTGTACATTATATATAAAAAAA [XGTACX_site3246],11.3 ± 0.9
17,TTTGTAACTTCTTTCACACATATATATATATATATA [CACACA_site5603],10.3 ± 0.42
18,CTATTATCGGTTCCTACACACAAATATAGATGTCTA [CACACA_site7651],10.3 ± 0.28
19,TATATAATACAAAAGGGTACATTAACATATTATATA [XGTACX_site3196],11.1 ± 0.72

row,Sequence,gcPBM binding intensity (ln)
1,TTTTATAATGTTGTAGTGCAAAATACGTATATTTAT [GTGCAC_site9826],10.5 ± 0.31
2,AATAAATATATGTACACACACAAATATATACATATC [CACACA_site1903],11.3 ± 0.63
3,AAAATATATATTAACACACACACAAAAAAAAAAAAA [CACACA_site1325],9.88 ± 0.49
4,AGATATAAGAAAAGCACACACACACCCAAAAAAAAA [CACACA_site2826],10.4 ± 0.38
5,GAAAATTATATGTGTTGTACACTTGCAACAACTATT [XGTACX_site3637],11.3 ± 0.78
6,CTATATTATTTTTCTTGTACGTAGGAAATATAGCTA [XGTACX_site6176],11.2 ± 0.76
7,ATATAAATATTTATTAGTACACATTAGTGTAGTTTT [XGTACX_site4493],11.5 ± 0.88
8,ACCGTGGGAAGACACACACACACACCCACATATATA [CACACA_site333],10.2 ± 0.2
9,TTTTATTCATTGAGCACACAAAATAAATTATCAAAA [CACACA_site3279],10.3 ± 0.32
10,AGTATATAATAATTTACACACAAAAAAATATCAGGA [CACACA_site3517],10.04 ± 0.021
11,TGATTTATCTATATTTTATAAGTTATTTATTTTTTT [CACACA_negctrl_site1603],9.245 ± 0.021
12,GGTGGCTAAATTACAACACACGACGGAATATTATAT [CACACA_site4114],10.05 ± 0.092
13,AATATATGGTTTCATTATATTAAATTCAATTTAATG [CACACA_negctrl_site675],9.86 ± 0.18
14,TTATTGTGTAAGATGATTTTCTTCGTCACTTTGAAA [CACACA_negctrl_site1814],9.685 ± 0.049
15,AAAAATGTATGTATGGTGCAGTATTCATATCATTTT [GTGCAC_site9458],10.03 ± 0.021
16,AAAATGAACAAACACACACACATATATATATATATA [CACACA_site2403],9.96 ± 0.35
17,ATATTCTTGTTTAATACACACTGTAGTATTATAGAT [CACACA_site6341],10.3 ± 0.33
18,TTTTTTAATATTTATTAATTAAACTTTGTTTTTGTT [XGTACX_negctrl_site454],9.38 ± 0.28
19,GACAAATAATAAAAGGTGCATTATACTTAACAAAAA [GTGCAC_site9624],10.1 ± 0.28

row,Sequence,gcPBM binding intensity (ln)
1,AAAAAACACTTAAGGTGTACCTTTTAATATAAGTAT [XGTACX_site2397],11.2 ± 0.64
2,TCTTGAAAAAGAATCAATCGGTCGACAAAAAAAAAA [CACACA_negctrl_site1099],10.4 ± 0.24
3,TACATTCGGAGTAAAAAAAAATTTATACAATTACTT [XGTACX_negctrl_site29],9.78 ± 0.014
4,AACCATAACTCATATGCACACATAAATATTACATAT [CACACA_site9273],10.17 ± 0.071
5,AAAGTATAAATAAATACACACATATATATATATATA [CACACA_site2892],10 ± 0.16
6,TGTGTATATAAATAATGTACATATATATTTTTTTAT [XGTACX_site7341],11.2 ± 0.67
7,GTAAAAAAAAAAAAAAGTACATTATACATATATTTA [XGTACX_site5447],11.3 ± 0.81
8,TCATACAATATTAAATGTACATATATATATATATAT [XGTACX_site8828],11.2 ± 0.61
9,ATATTAAAGCCTTTTTGTACATATAAATAAACATAG [XGTACX_site4667],10.9 ± 0.57
10,TATATATTATATATATGTACATAATTCCATGTTTAG [XGTACX_site3943],11.2 ± 0.81
11,AACTCTTAAAAATAAACATGCAAATATTTACCTTCT [TGCATGCA_site986],9.72 ± 0.12
12,ATTTTTTTTTTTTTTTTTCATTTTTTTTTTTTTTTT [CACACA_negctrl_site1204],10 ± 0.24
13,GTGTATTTGGTGCGCACACACATGCAAAAAGAAATA [CACACA_site4768],10.8 ± 0.61
14,TGTATAATCATATATACACACACATATATATATATA [CACACA_site8674],10.2 ± 0.41
15,TTATATAAAAAAAAATGTACATATAATTGGTAAATT [XGTACX_site5180],11.3 ± 0.76
16,TTTTTTTTCTTTTTTTTTTTTTCAAAAGCTTATAAT [CACACA_negctrl_site1526],9.82 ± 0.27
17,TTGAAAATAATATGAAGTACATTATTTTTTTTTAAT [XGTACX_site4499],11.1 ± 0.74
18,AAAAATATTTAAAATACACACATATATATAATATAT [CACACA_site2006],9.76 ± 0.13
